Where two headings read alike, the source gives them in different places.
Test: Eight hour time course of locomotor stimulation, cocaine alone and Compound 2 alone (Example 4)
Conditions: for ED50: Mus musculus, ip, read-out: ED50 (dose producing one half maximal stimulant activity)

Compound | time period in which maximal stimulant effects first appeared (IP, Compound 2) | ED50 (310 min) | ED50 (0.5 h)
CCCN(C)C1CC(c2ccc(Cl)c(Cl)c2)c2ccccc21 (stereo not drawn) [Compound 2] | 280 to 310 min | 3.3 mg/kg | –
COC(=O)[C@H]1[C@@H](OC(=O)c2ccccc2)C[C@@H]2CC[C@H]1N2C [cocaine] | – | – | 8.8 mg/kg

Reference: patent US5821386A (priority 1997, dated 1998)
